Laboratory results from the supplement of paper PMC7125110.
± gives the standard error. Variants at the background level are over-represented here.

B1: glmS ribozyme (parent)
chain: AUAAAAGCGCCAGAACUACAGAAAUGUAGUUGACGAGGAGGAGGUUUAUCGAAUUUUCGGCGGAUGCCUCCAAA

Variants of: B1
Experiment: self-cleavage kobs at 10000 uM GlcN6P; higher = faster cleavage; RNA array
Details: with glucosamine-6-phosphate
Procedure, shortened: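 On sequenced MiSeq chips, barcoded ribozyme variants were made in situ by E. coli RNA polymerase and followed at 37 °C through a hybridised Cy3 probe. Glucosamine-6-phosphate was flowed in at 40 μM to 10 mM in HEPES/KCl/Mg(OAc)2 buffer. Exponential fits to normalised per-tile medians gave kobs, and weighted Michaelis–Menten fits gave kcat and KM.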

Variant	self-cleavage kobs at 10000 uM GlcN6P
A6C U31A U46C	< 1e-05 s⁻¹
A6G A33U G44U G62C	< 1e-05 s⁻¹
A6G A52U G60A G66A	< 1e-05 s⁻¹
A6G C8U A15U G51U C68U	< 1e-05 s⁻¹
A6G C11G G40A U47G	< 1e-05 s⁻¹
A6G C11U A12C G35A C50U	< 1e-05 s⁻¹
A6G C16U G38U	< 1e-05 s⁻¹
A6G C67U C70U	< 1e-05 s⁻¹
A6G G13C G38A A42U G63C U69G C70U	< 1e-05 s⁻¹
A6G G29A G60C G63C	< 1e-05 s⁻¹
A6G G29U U49G U54A	< 1e-05 s⁻¹
A6G G41C U49G G63U	< 1e-05 s⁻¹
A6G U46G U56G G63C	< 1e-05 s⁻¹
A6U A12U A64G	0.000171 ± 4.1e-05 s⁻¹
A6U A15C G43C	< 1e-05 s⁻¹
A6U A33G C34U G44U U49C U57G	< 1e-05 s⁻¹
A6U A39G A52G C58G G59U G60U	< 1e-05 s⁻¹
A6U C11G A15U G35U A39C C67U	< 1e-05 s⁻¹
A6U G7A G29C	< 1e-05 s⁻¹
A6U G7U G13U U31C	< 1e-05 s⁻¹
A6U G38A A64C C68A	< 1e-05 s⁻¹
A6U G44U U56A	< 1e-05 s⁻¹
A6U U31C G38A C70A	< 1e-05 s⁻¹
G7A C8U A12G G13U U45C A64C	< 1e-05 s⁻¹

Variant	self-cleavage kobs at 10000 uM GlcN6P
G7A C34U A42C	< 1e-05 s⁻¹
G7A G21U G66U	< 1e-05 s⁻¹
G7C A48G G51U A52C C71U	< 1e-05 s⁻¹
G7C C8G G41A U65G G66U	< 1e-05 s⁻¹
G7C C16A A39G C50G G59C	< 1e-05 s⁻¹
G7C C34A	< 1e-05 s⁻¹
G7C G9A G37C U55G C68G	< 1e-05 s⁻¹
G7C G13C A42G	< 1e-05 s⁻¹
G7C G29C C70G	< 1e-05 s⁻¹
G7C G35U G38U	< 1e-05 s⁻¹
G7U A12G G35A A39G U49A C67A	< 1e-05 s⁻¹
G7U A14U A36C G38U U45C	< 1e-05 s⁻¹
G7U A15C A48U	< 1e-05 s⁻¹
G7U A15C C67A	< 1e-05 s⁻¹
G7U A15C G32U A48C C61U	< 1e-05 s⁻¹
G7U C61U C70A	< 1e-05 s⁻¹
G7U G13U G37C G66U	< 1e-05 s⁻¹
G7U G29U G41A C71A	< 1e-05 s⁻¹
G7U G37U G44C A53C G63U	< 1e-05 s⁻¹
G7U G38A U55A C71G	< 1e-05 s⁻¹
G7U U31G A39G G51A	< 1e-05 s⁻¹
G7U U55C C58A C67A	< 1e-05 s⁻¹
C8A A14C U49A	< 1e-05 s⁻¹
C8A A14U A39C	< 1e-05 s⁻¹

Variant	self-cleavage kobs at 10000 uM GlcN6P
C8A A36G U57C	< 1e-05 s⁻¹
C8A C16G U65C	< 1e-05 s⁻¹
C8A C34A A64G	< 1e-05 s⁻¹
C8A G9A C10U A33G A36G A39U U47C C58A	< 1e-05 s⁻¹
C8A G9U G35U U49A C50U C71G	< 1e-05 s⁻¹
C8A G37C A39G C58A G60C	< 1e-05 s⁻¹
C8A G40A C50U	< 1e-05 s⁻¹
C8A G44U C71A	< 1e-05 s⁻¹
C8A U65G	< 1e-05 s⁻¹
C8G A14C C67G	< 1e-05 s⁻¹
C8G A14C C68G	< 1e-05 s⁻¹
C8G A14G A33U	< 1e-05 s⁻¹
C8G A15G U45G	< 1e-05 s⁻¹
C8G A42C G66A	< 1e-05 s⁻¹
C8G G9A G35A A36U	< 1e-05 s⁻¹
C8G G32U G66U	< 1e-05 s⁻¹
C8G G40U C67U U69G	< 1e-05 s⁻¹
C8G G41U G66U C70G	< 1e-05 s⁻¹
C8G G43C C50U	< 1e-05 s⁻¹
C8G G51U U69G	0.00122 ± 0.00049 s⁻¹
C8G U45C G60C	< 1e-05 s⁻¹
C8G U49A A53G U65C C68U	< 1e-05 s⁻¹
C8U A36C G51U	< 1e-05 s⁻¹
C8U C11U G32A G37U G43A U45C	< 1e-05 s⁻¹

Variant	self-cleavage kobs at 10000 uM GlcN6P
C8U C11U U47G	< 1e-05 s⁻¹
C8U C34A A53C C71A	< 1e-05 s⁻¹
C8U C34A G51U U55G	< 1e-05 s⁻¹
C8U C50U G59U	< 1e-05 s⁻¹
C8U G9C G29A C50U	< 1e-05 s⁻¹
C8U G13A A15U G41A	< 1e-05 s⁻¹
C8U G13A U31G A42C U45G C67G	< 1e-05 s⁻¹
C8U G13A U57G	< 1e-05 s⁻¹
C8U G35C A36G G37C A39G G40A G66U	< 1e-05 s⁻¹
C8U G38U G43U	< 1e-05 s⁻¹
C8U U30G G37A A52C G66C C67G	< 1e-05 s⁻¹
C8U U30G G51U	< 1e-05 s⁻¹
C8U U31A G32C U45C	< 1e-05 s⁻¹
C8U U31C A52U	< 1e-05 s⁻¹
G9A A14C G62U C71U	< 1e-05 s⁻¹
G9A A33C G37U G41A C68U	< 1e-05 s⁻¹
G9A G29U G37C	< 1e-05 s⁻¹
G9A G32U G35U	< 1e-05 s⁻¹
G9A G37U A64C	< 1e-05 s⁻¹
G9A G44U U57C	< 1e-05 s⁻¹
G9A U30C G35U U55G	< 1e-05 s⁻¹
G9C A48C C50U U57A C71A	< 1e-05 s⁻¹
G9C C34U	< 1e-05 s⁻¹
G9C G35U G44U A53U C61U G66U	< 1e-05 s⁻¹

Variant	self-cleavage kobs at 10000 uM GlcN6P
G9C G44U A64U	< 1e-05 s⁻¹
G9C U46A C58U	< 1e-05 s⁻¹
G9U A33U G40A C58U	< 1e-05 s⁻¹
G9U A52C U69A	< 1e-05 s⁻¹
G9U C10G U45A	< 1e-05 s⁻¹
G9U G37U U46C	< 1e-05 s⁻¹
G9U G38A A39G C67U	< 1e-05 s⁻¹
G9U U30C G35U G60U A64U	< 1e-05 s⁻¹
C10A	< 1e-05 s⁻¹
C10A A15G A33U A42C	< 1e-05 s⁻¹
C10A C11U G35U A53U	< 1e-05 s⁻¹
C10A C16G G41C	< 1e-05 s⁻¹
C10A G38A U45G	< 1e-05 s⁻¹
C10A U57C C61U	< 1e-05 s⁻¹
C10A U57G G60U	< 1e-05 s⁻¹
C10G A14C G63U	< 1e-05 s⁻¹
C10G A15C C68U C71U	< 1e-05 s⁻¹
C10G A39C G41A A48C	< 1e-05 s⁻¹
C10G A39U U56C	< 1e-05 s⁻¹
C10G C11A G59C	< 1e-05 s⁻¹
C10G G37U A64G	< 1e-05 s⁻¹
C10G G40U U46C C71U	< 1e-05 s⁻¹
C10G G63A C67U	< 1e-05 s⁻¹
C10G U54G C58G	< 1e-05 s⁻¹

Variant	self-cleavage kobs at 10000 uM GlcN6P
C10U A12U U31C U46C	< 1e-05 s⁻¹
C10U A15C G32C A33U C61A G63C U65C	< 1e-05 s⁻¹
C10U A33G G35C U45G C68U	< 1e-05 s⁻¹
C10U A36C G44A	< 1e-05 s⁻¹
C10U A48U U56C C71G	< 1e-05 s⁻¹
C10U A52U G66C	< 1e-05 s⁻¹
C10U C11A A53G	< 1e-05 s⁻¹
C10U G13A G40U	< 1e-05 s⁻¹
C10U G35C U46G U55A U56C	< 1e-05 s⁻¹
C10U G41U U47A C58A	< 1e-05 s⁻¹
C10U G43A G62U	< 1e-05 s⁻¹
C10U G62A C70U C71G	< 1e-05 s⁻¹
C10U U30A G35U	< 1e-05 s⁻¹
C10U U55C G62U	< 1e-05 s⁻¹
C11A G13U A53G C67U C68G	3.78e-05 ± 1.7e-05 s⁻¹
C11A G35C C67A	< 1e-05 s⁻¹
C11A G37U C68U C71U	< 1e-05 s⁻¹
C11G A12G G32C U57C	< 1e-05 s⁻¹
C11G A12G G37A C68G	< 1e-05 s⁻¹
C11G A12G G38C	< 1e-05 s⁻¹
C11G A14U G37U A39G G43U A52G	< 1e-05 s⁻¹
C11G A15G G29U G43U U47G G59C	< 1e-05 s⁻¹
C11G A53C C70A	< 1e-05 s⁻¹
C11G G29U A33G C61G C71U	< 1e-05 s⁻¹

Variant	self-cleavage kobs at 10000 uM GlcN6P
C11G G43A G63U	< 1e-05 s⁻¹
C11G G43A U57G	< 1e-05 s⁻¹
C11G G44C U65C C67G C70U	< 1e-05 s⁻¹
C11U A15U G60U	< 1e-05 s⁻¹
C11U G29U G40U G62U	< 1e-05 s⁻¹
C11U G38U U45A A48U C71G	< 1e-05 s⁻¹
C11U G43U C58U G62U G63U	< 1e-05 s⁻¹
C11U G43U G63C A64U	< 1e-05 s⁻¹
C11U U31G U54A	0.0029 ± 0.0008 s⁻¹
C11U U46C A48U	< 1e-05 s⁻¹
C11U U56C C61U G63U	< 1e-05 s⁻¹
A12C A15U U31C	6.96e-05 ± 1.7e-05 s⁻¹
A12C A52U C67G	0.000146 ± 3.5e-05 s⁻¹
A12C G35U A48C C50A C67G	< 1e-05 s⁻¹
A12C G60C C61A	< 1e-05 s⁻¹
A12C U31G A48U C58G	< 1e-05 s⁻¹
A12G A14C A39C G44U G51U	< 1e-05 s⁻¹
A12G A14C C50G C71A	0.000133 ± 3.2e-05 s⁻¹
A12G G32U U49A	< 1e-05 s⁻¹
A12G G35C A42C C58U G59A G62U C70G	< 1e-05 s⁻¹
A12G G51C G60U	< 1e-05 s⁻¹
A12G G51U A53G	< 1e-05 s⁻¹
A12G U49A C58G G66A	< 1e-05 s⁻¹
